The values that follow come from patent US20250277006A1 (CYTIVA BIOPROCESS R AND D, published 2025).

The target in assay [1] is T1, Fc fragment from adalimumab.
T1 construct: also called adalimumab Fc fragment
The experiment in a line: SPR; ligand on CM5; max response at 800 nM, rounded to 50 Ru. On the technique in general: SPR reads the build-up and loss of mass on a sensor chip optically.

Assay [2] addresses T2, Fab fragment of trastuzumab (comprising VH3).
T2 construct: also called trastuzumab Fab fragment; Fab (VH3)
The description is as above.

Assay [3] concerns the target T2, Fab fragment of trastuzumab (comprising …). The experiment in a line: SPR; ligand immobilized on CM5; 1 g/L Fab.
Assay [4] shares this target. The experiment in a line: SPR; ligand immobilized on CM5; 1 g/L Fab. This is another data set of the same source.

T2 sequence (chain, as listed by the source, chain 2 of 2, other chains not shown): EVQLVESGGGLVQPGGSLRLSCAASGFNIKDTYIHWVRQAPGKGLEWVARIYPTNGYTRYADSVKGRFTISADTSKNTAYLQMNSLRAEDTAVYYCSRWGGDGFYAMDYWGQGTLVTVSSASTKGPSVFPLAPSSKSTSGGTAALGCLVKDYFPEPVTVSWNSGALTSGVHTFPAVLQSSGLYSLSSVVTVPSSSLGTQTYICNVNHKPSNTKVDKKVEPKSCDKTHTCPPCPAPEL

B1: ZGE0201 (modified version of protein A) (designed binder)
chain: IAAQHDKDQQAAFYEILHLPNLTEEQRNAFIQSLRDDPSQSLEILAEAKKLNDAQAPK
Take B1: the “max response (Ru)” value in assay [1] was determined as 1700 Ru; in assay [2], 150 Ru.

B2: ZGE0202 (modified version of protein A) (designed binder)
chain: IAAQHDKEHQAAFYEILHLPNLTEDQRNAFIQSLRDDPSQSLEILGEAKKLNDAQAPK
In the case of B2, the “max response (Ru)” value in assay [1] is 1800 Ru.

B3: ZGE0232 (ZGE0202 scaffold with A/G/R at positions 33/40/51) (designed binder)
chain: IAAQHDKEHQAAFYEILHLPNLTEDQRNAFIQALRDDPSGSLEILGEAKKRNDAQAPK
For B3, in assay [1], the “max response (Ru)” value amounted to 1400 Ru.

B4: ZGE0211 (ZGE0201 scaffold with A/R/I at positions 33/40/51) (designed binder)
chain: IAAQHDKDQQAAFYEILHLPNLTEEQRNAFIQALRDDPSRSLEILAEAKKINDAQAPK
As for B4, the “max response (Ru)” value in assay [1] was 2400 Ru.

B5: ZGE0221 (ZGE0201 scaffold with S/G/V at positions 33/40/51) (designed binder)
chain: IAAQHDKDQQAAFYEILHLPNLTEEQRNAFIQSLRDDPSGSLEILAEAKKVNDAQAPK
Consider B5, for which the “max response (Ru)” value in assay [1] was determined as 1400 Ru.

B6: ZGE0231 (ZGE0201 scaffold with A/G/R at positions 33/40/51) (designed binder)
chain: IAAQHDKDQQAAFYEILHLPNLTEEQRNAFIQALRDDPSGSLEILAEAKKRNDAQAPK
On to B6, for which, in assay [1], the “max response (Ru)” value is 1500 Ru.

B7: ZGE0212 (ZGE0202 scaffold with A/R/I at positions 33/40/51) (designed binder)
chain: IAAQHDKEHQAAFYEILHLPNLTEDQRNAFIQALRDDPSRSLEILGEAKKINDAQAPK
As to B7, in assay [1], the “max response (Ru)” value is 2400 Ru.

B8: ZGE0222 (ZGE0202 scaffold with S/G/V at positions 33/40/51) (designed binder)
chain: IAAQHDKEHQAAFYEILHLPNLTEDQRNAFIQSLRDDPSGSLEILGEAKKVNDAQAPK
On to B8, for which the “max response (Ru)” value in assay [1] is 2000 Ru.

B9: ZGE0203 (modified version of protein A) (designed binder)
chain: VDNKFNKEQQNAFTEILHLPNLTEEQRNAFIQSLKDDPSQTKEILAEAKKLNDAQAPK
B9: the “max response (Ru)” value amounted to 1250 Ru in assay [1] and 100 Ru in assay [2].

B10: ZGE0213 (ZGE0203 scaffold with A/R/I at positions 33/40/51) (designed binder)
chain: VDNKFNKEQQNAFTEILHLPNLTEEQRNAFIQALKDDPSRTKEILAEAKKINDAQAPK
B10: the “max response (Ru)” value in assay [1] stood at 1650 Ru.

B11: ZGE0233 (ZGE0203 scaffold with A/G/R at positions 33/40/51) (designed binder)
chain: VDNKFNKEQQNAFTEILHLPNLTEEQRNAFIQALKDDPSGTKEILAEAKKRNDAQAPK
For the molecule B11, the “max response (Ru)” value in assay [1] is 700 Ru.

B12: ZGE0223 (ZGE0203 scaffold with S/G/V at positions 33/40/51) (designed binder)
chain: VDNKFNKEQQNAFTEILHLPNLTEEQRNAFIQSLKDDPSGTKEILAEAKKVNDAQAPK
As to B12, in assay [1], the “max response (Ru)” value was determined as 650 Ru.

B13: ZGE86 (designed binder)
chain: VDAKFDKEAQEAFYEILHLPNLTEEQRNAFIQGLKDDPSGSKAILAEAKKINDAQAPK
notes: also called GGI
On to B13, for which, in assay [3], the “analyte binding Relative (RU)” value was -18.4 RU. The “Fab binding RU” value in assay [4] was -18.4 RU.

B14: ZGE95 (designed binder)
chain: VDAKFDKEAQEAFYEILHLPNLTEEQRNAFIQALKDDPSGSKAILAEAKKRNDAQAPK
notes: also called AGR
On to B14, for which the “analyte binding Relative (RU)” value in assay [3] is -0.6 RU. Besides, the “Fab binding RU” value in assay [4] is -0.6 RU.

B15: ZGE96 (designed binder)
chain: VDAKFDKEAQEAFYEILHLPNLTEEQRNAFIQELKDDPSGSKAILAEAKKLNDAQAPK
notes: also called EGL
B15: in assay [3], the “analyte binding Relative (RU)” value is -3.3 RU. Besides, in assay [4], the “Fab binding RU” value was -3.3 RU and the “Fab binding RU (% of SEQ ID NO: 58)” value amounted to 0%.

B16: ZGE90 (designed binder)
chain: VDAKFDKEAQEAFYEILHLPNLTEEQRNAFIQALKDDPSRSKAILAEAKKINDAQAPK
notes: also called ARI
Consider B16, for which the “analyte binding Relative (RU)” value in assay [3] was -0.9 RU. Also, the “Fab binding RU” value in assay [4] was -0.9 RU.

B17: ZGE91 (designed binder)
chain: VDAKFDKEAQEAFYEILHLPNLTEEQRNAFIQSLKDDPSGSKAILAEAKKVNDAQAPK
notes: also called SGV
As for B17, the “analyte binding Relative (RU)” value in assay [3] was -7 RU. Besides, in assay [4], the “Fab binding RU” value is -7 RU and the “Fab binding RU (% of SEQ ID NO: 58)” value was determined as 0%.
